# The campaign covered roughly 310,000 compounds. About 2,200 (0.71%) showed an effect of 50% or more. The effect is printed as a negative number. The list shows a part of the results.
# Molecular target: human ether-à-go-go-related gene (hERG) potassium channel (human, UniProt Q12809)
# Test: primary screen, population patch clamp on CHO cells stably expressing hERG
# human ether-à-go-go-related gene (hERG) potassium channel, sequence (Q12809 whole entry, looked up): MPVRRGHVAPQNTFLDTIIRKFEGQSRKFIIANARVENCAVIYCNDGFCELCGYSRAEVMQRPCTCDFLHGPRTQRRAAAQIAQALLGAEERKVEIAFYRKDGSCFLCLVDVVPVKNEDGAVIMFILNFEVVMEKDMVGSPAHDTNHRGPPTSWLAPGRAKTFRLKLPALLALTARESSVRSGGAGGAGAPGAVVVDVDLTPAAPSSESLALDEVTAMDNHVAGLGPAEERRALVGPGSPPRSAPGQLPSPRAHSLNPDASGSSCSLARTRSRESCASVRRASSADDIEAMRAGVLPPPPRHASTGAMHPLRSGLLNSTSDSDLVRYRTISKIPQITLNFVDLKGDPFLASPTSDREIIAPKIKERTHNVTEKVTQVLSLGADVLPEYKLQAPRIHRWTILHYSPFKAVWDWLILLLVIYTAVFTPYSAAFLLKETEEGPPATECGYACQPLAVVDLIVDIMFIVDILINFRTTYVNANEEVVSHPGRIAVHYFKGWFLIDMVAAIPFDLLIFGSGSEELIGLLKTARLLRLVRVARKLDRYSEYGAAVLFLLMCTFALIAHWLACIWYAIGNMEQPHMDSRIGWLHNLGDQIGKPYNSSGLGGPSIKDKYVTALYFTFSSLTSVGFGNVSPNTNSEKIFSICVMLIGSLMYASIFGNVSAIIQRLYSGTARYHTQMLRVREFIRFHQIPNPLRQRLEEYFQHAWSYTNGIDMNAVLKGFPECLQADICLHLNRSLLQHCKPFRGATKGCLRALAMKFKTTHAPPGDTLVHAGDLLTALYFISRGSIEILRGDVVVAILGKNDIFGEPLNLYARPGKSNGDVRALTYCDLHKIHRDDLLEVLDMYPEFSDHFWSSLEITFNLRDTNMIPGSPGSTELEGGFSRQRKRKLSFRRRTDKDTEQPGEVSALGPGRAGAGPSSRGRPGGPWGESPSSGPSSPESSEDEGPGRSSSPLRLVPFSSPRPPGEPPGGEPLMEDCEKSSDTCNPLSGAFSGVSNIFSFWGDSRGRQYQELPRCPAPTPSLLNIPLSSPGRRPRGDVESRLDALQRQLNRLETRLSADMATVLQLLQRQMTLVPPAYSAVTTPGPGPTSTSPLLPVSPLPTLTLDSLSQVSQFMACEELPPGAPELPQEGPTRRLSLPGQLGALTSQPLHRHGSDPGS
row,Compound,"hERG current change (%, negative = inhibition) at 1uM"
1,COc1ccccc1Nc1cc(N2CCOCC2)c2nonc2c1[N+](=O)[O-],3.71%
2,O=C(NC1=NCCS1)c1ccc(Cl)cc1,18%
3,CN1c2ccc([N+](=O)[O-])cc2N(C)C1(C)c1ccccc1 (centres unmarked),13.1%
4,Nc1nc2n(n1)C(=O)CC(c1ccccc1[N+](=O)[O-])N2 (centres unmarked),18.6%
5,Cc1cc(NC(=O)CSc2ccccn2)no1,6.36%
6,CC(OC(=O)CCN=C1NS(=O)(=O)c2ccccc21)C(=O)Nc1ccc(N(C)C)cc1 (centres unmarked),6.5%
7,O=Cc1c(NCc2ccccc2Cl)c2ccccc2[nH]c1=O,8.22%
8,Clc1ccc(-n2nnnc2-c2ccccc2)cc1Cl,8.95%
9,CC(C)CCN1C(=O)CC(NNC(=O)c2ccc(S(=O)(=O)N3CCCC3)cc2)C1=O (centres unmarked),9.66%
10,CCN(CC)c1nc(N2CCN(C)CC2)nc2ccccc12.Cl,-0.0664%
11,O=C(Cc1coc(-c2ccc(F)cc2)n1)N1CCOCC1,6.42%
12,C#CCOCCOCCOCCNc1nc(N2CCN(C(=O)C(Cc3ccc(O)cc3)n3cc(C(N)CC(C)C)nn3)CC2)nc(N2CCN(C(=O)C(Cc3ccc(O)cc3)n3cc(C(N)C(C)CC)nn3)CC2)n1.Cl (centres unmarked),10.2%
13,CCc1ccc2c(c1)[C@]1(C(=O)N2)[C@@H]2C(=O)N(Cc3ccccc3)C(=O)[C@@H]2[C@@H]2CCCN21,14.5%
14,O=C1NC2(CCCCCC2)C(=O)N1Cc1ccc(Cl)cc1Cl,9.34%
15,CC(C(=O)NCc1ccco1)n1ccc2cc(S(=O)(=O)N3CCCCC3)ccc21 (centres unmarked),12.2%
16,O=C(c1ccc(Cl)c(S(=O)(=O)N2CCOCC2)c1)N1CCCCC1,11.1%
17,CNC(=S)NC1CC2CCCC(C1)N2Cc1ccco1 (centres unmarked),11.1%
18,Cc1nc2ncnn2c(C)c1CCC(=O)N1CCN(c2ccccn2)CC1,-9.92%
19,CCOc1cc(/C=C2/C(=N)N3OC(C)=CC3=NC2=O)ccc1OC,11.2%
20,COc1ccc(OC)c(C2NC(=S)NC(C)=C2C(=O)Nc2ccccn2)c1 (centres unmarked),2.16%
21,O=c1cc(CN2CCN(C/C=C/c3ccccc3)CC2)c2cc(O)c(-c3ccccc3)cc2o1,12.8%
22,Cc1cc(C)nc(/N=C(/NC(=O)c2ccccc2)Nc2ccccc2)n1,5.9%
23,CCOC(=O)C1(CC2CC2)CCN(Cc2cc(Cl)c(O)c(OC)c2)CC1,-14.4%
24,Cc1cccc(NC(=O)C2C(c3ccccc3)C2(Cl)Cl)c1C (centres unmarked),7.98%
25,C(C#CCCCCCCCCC[n+]1ccccc1)#CCCCCCCCCC[n+]1ccccc1.Cc1ccc(S(=O)(=O)O)cc1,9.06%
26,CCOc1ccc(CCNC(=O)C(C)N2C(=O)CC(C)(C)Sc3ccccc32)cc1 (centres unmarked),14.3%
27,CCn1c(Cc2ccc(OC)cc2)nnc1SCC(=O)Nc1cccc(C(=O)OC)c1,-5.48%

row,Compound,"hERG current change (%, negative = inhibition) at 1uM"
1,Cc1cc(C(=O)N2CCCC(CO)(Cc3ccc(F)cc3)C2)c(C)o1 (centres unmarked),7.5%
2,CC1CN(C(=O)C(C)Sc2nc3ccccc3s2)CC(C)O1 (centres unmarked),11.3%
3,Cc1nn(C)c(C)c1S(=O)(=O)N(CC(=O)N1CCc2ccccc21)c1ccc(C(C)C)cc1,2.58%
4,COc1ccc(OC)c(Nc2ncnc3sc(-c4ccccc4)cc23)c1,11.3%
5,Cc1[nH]c2c(ccc3ccccc32)c1C1C(CCN)C1(C)C (centres unmarked),4.8%
6,COc1ccc(N=C2SC(CC(=O)Nc3ccccc3)C(=O)N2CCc2ccccn2)cc1 (centres unmarked),1.91%
7,CC(=O)N(C)c1ccc(NC(=O)/C=C/c2ccccc2Cl)cc1,0.296%
8,Cn1ncc(Cl)c1C(=O)Nc1cccnc1,15.2%
9,O=C(O)C1CCCN1S(=O)(=O)c1cccc(S(=O)(=O)N2CCCC2C(=O)O)c1 (centres unmarked),8.12%
10,CC(C)Cc1nc2oc3c(NCC4CCCO4)ncnc3c2c2c1CCC2 (centres unmarked),-8.78%
11,FC(F)(F)c1cccc(-c2nc3nc(Cl)c(Cl)nc3[nH]2)c1,18.5%
12,COc1cc(NC(=O)c2cnc(N)s2)cc(C(=O)Nc2cccc(C(F)(F)F)c2)c1,-13.2%
13,COC(=O)CN(c1ccccc1OC)S(=O)(=O)c1ccccc1,-0.426%
14,N#Cc1cc([N+](=O)[O-])ccc1NC(=O)COC(=O)CC1CCCC1,4.27%
15,Cn1c(N2CCOCC2)nc(-c2ccccc2)c1-c1ccccc1,4.43%
16,CN(C)S(=O)(=O)N1CCCC(C(=O)c2ccc(-c3ccccc3)c(F)c2)C1 (centres unmarked),9.5%
17,COc1cccc(-n2c(C)c3c(OC)cccc(=O)c3c2C)c1,5.6%
18,CC(O)c1c(OCc2ccccc2)ncnc1OCc1ccccc1 (centres unmarked),-3.83%
19,Cc1ccc(C(=O)CSc2nnc(CNc3nc(-c4ccccc4)cs3)n2C)cc1,7.92%
20,Cc1ccc(NC(=O)C(c2ccccc2)N2CCN(C(=O)c3ccco3)CC2)cc1Cl (centres unmarked),2.28%
21,N#C/C(=C\c1cccc(OC(=O)c2cccs2)c1)C(N)=O,14.4%
22,COc1ccccc1Nc1nc(NCc2ccco2)c2ccccc2n1.Cl,-1.94%
23,CC(Oc1cccc(Cl)c1)C(=O)Nc1ccc(S(=O)(=O)N(C)C2CCN(C)CC2)cc1 (centres unmarked),3.5%
24,Cc1cc(OC(C)C)c2c(-c3ccccc3)cc(=O)oc2c1,6.97%
25,CCOc1ccc2[nH]c(=O)c(C(c3nnnn3C3CCCCC3)N3CCN(CC)CC3)cc2c1 (centres unmarked),-10%
26,CC(NC(=O)CC(c1ccccc1)c1cc(Cl)ccc1O)c1ccccc1 (centres unmarked),3.76%

# Source: PMC4336329 (PLoS ONE, 2015)
